{"source": "patent US20230027238A1", "about": "(SPECTRUM PHARMACEUTICALS, published 2023)", "binders": {"B1": {"name": "eflapegrastim (17,65Ser-G-CSF-PEG-Fc protein complex) (Fc fusion)", "chain 1": "TPLGPASSLPQSFLLKSLEQVRKIQGDGAALQEKLCATYKLCHPEELVLLGHSLGIPWAPLSSCSSQALQLAGCLSQLHSGLFLYQGLLQALEGISPELGPTLDTLQLDVADFATTIWQQMEELGMAPALQPTQGAMPAFASAFQRRAGGVLVASHLQSFLEVSYRVLRHLAQP", "chain 2": "[in this place human IgG4 Fc]", "modifications": "N-terminus of only one of the two Fc chains linked to the other end of the PEG; aglycosylated (made in E. coli); amino group of the N-terminus linked to one end of a 3.4 kDa polyethylene glycol (PEG dialdehyde)", "notes": "also called 17,65S-G-CSF-PEG-Fc; 17,65SG-CSF-PEG-Fc"}}, "target": "T1, Chinese hamster ovary (CHO) cell-derived soluble recombinant human G-CSF receptor (human, UniProt Q99062 25-627)", "T1 construct": "extracellular domain; Immobilised by amine coupling on the sensor chip; also called soluble human G-CSF receptor; R&D Systems 381-050/CF", "T1 sequence (looked up)": "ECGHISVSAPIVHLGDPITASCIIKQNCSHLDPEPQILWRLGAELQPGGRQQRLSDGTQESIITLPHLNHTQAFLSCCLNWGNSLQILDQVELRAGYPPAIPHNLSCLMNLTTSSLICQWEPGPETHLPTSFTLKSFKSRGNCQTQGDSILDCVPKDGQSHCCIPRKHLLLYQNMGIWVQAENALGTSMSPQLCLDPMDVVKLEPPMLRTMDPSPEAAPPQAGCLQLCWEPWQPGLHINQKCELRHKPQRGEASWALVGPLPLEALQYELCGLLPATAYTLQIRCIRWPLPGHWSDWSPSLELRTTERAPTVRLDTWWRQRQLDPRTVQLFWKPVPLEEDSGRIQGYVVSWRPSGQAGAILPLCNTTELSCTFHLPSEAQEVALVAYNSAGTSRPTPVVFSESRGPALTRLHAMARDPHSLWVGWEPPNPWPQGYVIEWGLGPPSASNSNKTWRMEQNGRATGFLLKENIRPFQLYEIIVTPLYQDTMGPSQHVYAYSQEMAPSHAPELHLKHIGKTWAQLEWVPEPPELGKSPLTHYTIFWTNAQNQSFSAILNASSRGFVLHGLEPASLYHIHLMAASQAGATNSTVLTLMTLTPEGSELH", "test": "SPR (BIAcore 3000), receptor amine-coupled to the chip, analyte 5.5-88 nmol/L, 25 °C, 1:1 Langmuir fit", "data": [{"binder": "B1", "values": [{"measurement": "Kd", "result": 3.6, "unit": "nM"}]}]}
